# Test results published in paper PMC6919601, “Identification of Plasmodium dipeptidyl aminopeptidase allosteric inhibitors by high throughput screening” (PLoS ONE, 2019).
# The whole screen tested about 110,000 compounds, of which about 230 (0.21%) showed an effect of 50% or more. The list shows a part of the results.
# Target: DPAP1 (Plasmodium falciparum, UniProt Q8IIJ9)
# Experiment: primary screen, percent inhibition; read by cleavage of a fluorogenic dipeptide substrate; higher = more effect of the substance
# Parameters: species or system P. falciparum D10 trophozoite lysates; single well
# 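Also: 30 min substrate incubation versus DMSO and 10 µM JCP410 controls.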
# DPAP1, sequence (Q8IIJ9 whole entry, looked up): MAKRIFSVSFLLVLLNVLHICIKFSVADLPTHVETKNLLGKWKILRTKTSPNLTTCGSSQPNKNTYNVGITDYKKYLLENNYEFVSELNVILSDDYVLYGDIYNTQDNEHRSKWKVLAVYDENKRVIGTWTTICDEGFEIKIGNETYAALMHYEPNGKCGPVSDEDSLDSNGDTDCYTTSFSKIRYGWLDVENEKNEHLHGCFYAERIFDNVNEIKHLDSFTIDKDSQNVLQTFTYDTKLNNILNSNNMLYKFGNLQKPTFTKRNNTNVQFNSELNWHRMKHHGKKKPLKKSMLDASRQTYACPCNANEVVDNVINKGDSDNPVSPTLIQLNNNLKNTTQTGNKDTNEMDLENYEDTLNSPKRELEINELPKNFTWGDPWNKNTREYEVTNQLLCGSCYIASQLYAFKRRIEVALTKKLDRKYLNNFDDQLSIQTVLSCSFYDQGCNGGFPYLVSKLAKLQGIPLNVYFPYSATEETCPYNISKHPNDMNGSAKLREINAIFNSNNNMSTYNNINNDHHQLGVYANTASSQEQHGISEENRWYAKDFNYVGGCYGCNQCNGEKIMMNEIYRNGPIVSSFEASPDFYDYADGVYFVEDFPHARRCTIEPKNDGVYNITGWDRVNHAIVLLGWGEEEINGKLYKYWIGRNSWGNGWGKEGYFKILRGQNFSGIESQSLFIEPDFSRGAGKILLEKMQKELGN
row,SMILES,% Inhibition @ 10 uM
1,CC12CN3CC(C)(CN(C1)C3c1ccc(O)cc1)C2=O (stereo not drawn),-4.35%
2,O=C(Nc1cccc([N+](=O)[O-])c1)c1ccccc1C(=O)Nc1cccc2ccccc12,-6.52%
3,CCOC(=O)C1=C(CS(=O)(=O)c2ccccc2)NC(=O)NC1c1ccccc1OCC (stereo not drawn),2.85%
4,COc1cc(C2C(C#N)=C(N)Oc3[nH]nc(C(C)C)c32)ccc1O (stereo not drawn),-2.77%
5,O=C(NCCN1CCOCC1)c1cc2nc(-c3ccc(Cl)c(Cl)c3)cc(C(F)(F)F)n2n1,-1.57%
6,CCOc1ccc(CNS(=O)(=O)c2cc(C(=O)OC)n(C)c2)cc1OC,-1.78%
7,CN(Cc1ccccc1)C(=O)C1CCC(CNS(=O)(=O)c2cccc3cccnc23)CC1 (stereo not drawn),-4.21%
8,CCCCNC(=O)CN(c1cccc(F)c1)S(C)(=O)=O,0.605%
9,O=C1NC(c2cccc(F)c2)C(C(=O)c2ccccc2)C(O)(C(F)(F)F)N1 (stereo not drawn),0.24%
10,CCOC(=O)C1=Cc2sc3c(c2CS1)CCCC3,9.04%
11,CC1CCCCN1CCNC(=O)c1cc(S(=O)(=O)N2CCCC2)cn1C (stereo not drawn),-0.659%
12,Cc1cc(-c2ccccc2)c2c(N)c(C(=O)NC3CCCCC3)sc2n1,-1.72%
13,COc1ccc(-c2cc(C(=O)Nc3ccncc3)c3ccccc3n2)c(OC)c1,0.331%
14,Cc1c(-c2nsc(NC(=O)c3cccs3)n2)nnn1-c1ccc(C(C)C)cc1,-1.74%
15,CCCCn1nnc2sc3c(c2c1=O)CCC(C(C)(C)C)C3 (stereo not drawn),-0.946%
16,Cn1c2c(c(=O)n(C)c1=O)CN(CC1CCN(Cc3ccccc3F)CC1)CN2,-2.88%
17,CC(C)C[C@H](NC(=O)c1ccc(N2CCCC2=O)cc1)C(=O)NCC#N,-11%
18,COCc1nnc(NC(=O)CSCc2ccccc2)s1,3.87%
19,O=C(Cn1cnc(S(=O)(=O)N2CCCC2)c1)NCc1ccc(F)cc1,2.65%
20,O=C(COc1ccccc1)Nc1nc(-c2ccc(S(=O)(=O)N3CCOCC3)cc2)cs1,12.5%
21,COCCCNC(=O)CSc1nnc(-c2ccc(C)cc2)c(-c2ccc(C)cc2)n1,-0.615%
22,CS(=O)(=O)C1=NN2C(=N)/C(=C\c3ccc(OCCOc4ccccc4)cc3)C(=O)N=C2S1,-3.39%
23,Cc1ccc(NC(=O)/C(C#N)=C(\N)C(Cl)(Cl)Cl)nc1,2.8%
24,CC(C)NC(=O)C(=O)Nc1ccc2c(c1)OCCO2,-0.833%
25,COc1ccccc1S(=O)(=O)Cc1ccc(C(=O)NCc2ccccc2Cl)o1,-3.32%

row,SMILES,% Inhibition @ 10 uM
1,CNC(=O)c1cccnc1Nc1cccc(C(F)(F)F)c1,0.245%
2,O=C1NC(=O)N(c2ccccc2)C(=O)/C1=C\Nc1ccccc1Cl,-6.62%
3,CC1=CC(C)(C)N2C(=O)C(=O)c3c(C)c(C)cc1c32,2.36%
4,COc1ccc(OCCSc2nc(C)cc(O)n2)cc1,-4.76%
5,O=C(O)CNS(=O)(=O)c1ccc(C2CCCCC2)cc1,2.44%
6,COC(=O)c1c(NC(=O)C2CCCO2)sc2c1CCC2 (stereo not drawn),1.4%
7,Cc1ccc(CSc2nc3ccc(C(=O)N4CCN(c5ncccn5)CC4)cc3n2C)cc1,4.24%
8,CCN(CCN(C)C)C1CCC(C)CC1 (stereo not drawn),3.44%
9,O=C(CSC1CC(=O)N(c2ccc(F)cc2)C1=O)Nc1ccc2ccccc2c1 (stereo not drawn),-1.08%
10,Cc1ccc(-c2cc(C(=O)N3CCCC(C)C3)n[nH]2)cc1C (stereo not drawn),2.79%
11,CCCCSc1nc2ccc(NC(C)=O)cc2s1,0.815%
12,c1ccc(CN2CCC(NCCCN3CCOCC3)CC2)cc1,3.19%
13,CCC(C)C(NCc1cccc(C)c1)C(=O)O (stereo not drawn),-1.99%
14,Cc1ccc(CNc2c3c(nc4nncn24)CCC3)cc1,-5.33%
15,CN(c1cccc(NS(=O)(=O)c2cc(Cl)ccc2Cl)c1)S(C)(=O)=O,-4.14%
16,Cc1ccccc1-c1noc(C2CCC(c3ccccc3)CC2)n1 (stereo not drawn),-2%
17,Cc1c(Cl)cccc1-n1ncnc1-c1ccc(Cl)cc1,-3.6%
18,CCOc1ccccc1/C=C(\C#N)c1nc(-c2ccc(Br)cc2)cs1,-7.99%
19,CC(C)(C)NCC(O)COc1cccc2c3c(oc12)CCCC3 (stereo not drawn),-3.16%
20,Cc1noc(C)c1S(=O)(=O)NC(c1ccccc1)c1ccccc1,-1.83%
21,Cc1c(CNCCCc2ccccc2)c(C(=O)O)c(C)n1Cc1ccc(F)cc1,-3.67%
22,COc1cccc(N(CC(=O)N(C)Cc2ccccc2)S(=O)(=O)c2ccc(C)cc2)c1,8.26%
23,CCOC(=O)C1CCCN(Cc2ccc(Br)cc2)C1 (stereo not drawn),1.38%
24,CCOc1ccc(CNC(=O)c2oc3ccc4c(c3c2C)C(=O)CC2(CCCC2)O4)cc1,-2.85%
25,Cc1cc2oc(C(=O)Nc3nonc3C)c(C)c2cc1C,3.51%

row,SMILES,% Inhibition @ 10 uM
1,CN1CCN(C(=O)COCc2cc(-c3ccc4c(c3)OCO4)on2)CC1,1.86%
2,COC(=O)c1ccc(NC(=O)C(c2ccccc2)c2ccccc2)cc1,-1.86%
3,Cc1cccc(-n2ncc3c(NCCc4c[nH]c5ccccc45)ncnc32)c1,9.07%
4,Cc1cc(NC(=O)c2ccc3c(c2)CC(c2ccccc2)OC3=O)no1 (stereo not drawn),-1.37%
5,COC(=O)c1c[nH]n2c(NC3CCCCC3)c(-c3ccc(Cl)cc3)nc12,-1.99%
6,CCN(C(=O)c1ccc2c(c1)OCO2)c1nc(-c2ccccc2)cs1,-5.98%
7,CCOCCCNC(=O)CN(C)c1nn2c(=O)cc(C)nc2s1,1.38%
8,COc1cc(C2NC(=O)NC(C)=C2C(=O)NCc2ccccc2)c(Cl)cc1O (stereo not drawn),-7.99%
9,O=C(c1ccc([N+](=O)[O-])o1)N1CCc2ccccc21,-2.55%
10,COc1ccc(OCc2cc(O)nc3ccccc23)cc1,2.72%
11,COc1ccc(/N=C2/S/C(=C\c3ccc(OC)c(C)c3)C(=O)N2C)cc1,6.69%
12,NC1CCCc2c1[nH]c1ccc([N+](=O)[O-])cc21 (stereo not drawn),-0.693%
13,c1cncc(CNc2nc3ccccc3n3nnnc23)c1,1.15%
14,CC(NC(=O)CSCc1cccs1)c1ccccc1 (stereo not drawn),1.72%
15,CCOC(=O)c1ccc(C)c(CNC(=O)CSc2nnc(-c3ccc(F)cc3)n2C)c1,5.13%
16,COc1cc2c(cc1OC)C(c1cccc(Cl)c1)N(Cc1cccs1)CC2 (stereo not drawn),-1.85%
17,Cc1c(Cc2ccccc2)sc(NC(=O)c2ccc(F)cc2)c1C(N)=O,-6.92%
18,CC1=NN(c2cccc(Br)c2)C(=O)/C1=C\c1cccc([N+](=O)[O-])c1,-8.22%
19,O=C(/C=C\Nc1ccc(S(=O)(=O)Nc2ncccn2)cc1)c1cccs1,-1.06%
20,CC(C)CCn1c(=O)c2ccccc2n2c(CCC(=O)NC(C)c3ccccc3)nnc12 (stereo not drawn),5.09%
21,CC(=O)Nc1ccc(S(=O)(=O)Nc2nc3c(s2)CCCC3)cc1,-4.67%
22,Cc1c(Cc2ccccc2)sc(NC(=O)COc2ccccc2Cl)c1C(N)=O,17%
23,Cc1cccc(C)c1NC(=O)CN(c1ccccc1F)S(=O)(=O)c1ccccc1,-3.39%
24,CCN(CC)S(=O)(=O)c1cnccc1N1CCN(c2cccc(Cl)c2)CC1,-2.74%
25,CN(C)c1ccc(-c2[nH]c3c(=O)n(C)c(=O)n(C)c3c2O)cc1,0.345%

row,SMILES,% Inhibition @ 10 uM
1,O=C(CSc1ccccn1)NCC(=O)c1ccccc1,-4.48%
2,COc1ccc2c(c1)CCc1sc(NC(=O)c3ccccc3Cl)nc1-2,-7.46%
3,C=CCc1cc(/C=C2/NC(=O)N(Cc3ccccc3F)C2=O)cc(OCC)c1O,-18.8%
4,O=C(O)c1ccc(-c2ccc(/C=C3\SC(=O)N(CC(=O)N4CCOCC4)C3=O)o2)cc1Cl,-3.04%
5,O=S(=O)(c1ccccc1Br)N1CCNCC1,-0.671%
6,Cc1ccc(C(=O)N/C(=C\c2cn(S(=O)(=O)N(C)C)c3ccccc23)C(=O)NCCCO)cc1,4.8%
7,COc1cc(-c2noc(CCCC(=O)N3CCCCC3)n2)cc(OC)c1OC,0.347%
8,CCCCn1nnc2sc3c(c2c1=O)CCCC3,0.561%
9,Cc1nn(CC(=O)NCCC(C)C)c(=O)c2cccn12,-6.64%
10,CCN1C(=O)c2ccc(C(=O)NCc3ccc(C(=O)O)cc3)cc2C1=O,-1.24%
11,CCCn1c2ccccc2c2cnn(CC(=O)NC(C)CCc3ccccc3)c(=O)c21 (stereo not drawn),1.43%
12,O=C(NC1CCCCC1)c1cc2c(ccc3ccccc32)o1,49%
13,N#CC1=C(N)OC2=C(C(=O)CCC2)C1c1ccc(Cl)cc1Cl (stereo not drawn),-0.128%
14,CCN(CC)C(=O)CSc1n[nH]c(-c2ccccc2OC)n1,-3.75%
15,Cc1ccnc(NC(=O)C2c3ccccc3C(=O)N(C3CCCC3)C2c2cccs2)c1 (stereo not drawn),2.24%
16,CCN1CCN(Cc2cc(=O)oc3cc(C)ccc23)CC1,7.8%
17,Cc1ccccc1S(=O)(=O)Cc1ccc(C(=O)NCC2CCN(C(C)c3ccccc3)C2)o1 (stereo not drawn),3.47%
18,Cc1nc2sc(C(=O)NCc3ccc(Cl)cc3)c(N)c2c(C)c1C,-4.35%
19,CCCC(=O)C1=C(Nc2ccc3ccccc3c2)CC(C)(C)CC1=O,0.121%
20,O=C(NC(c1ccccc1)c1ccccc1)C1CCN(S(=O)(=O)c2cccnc2)CC1,0.947%
21,CN(Cc1ccccc1)S(=O)(=O)c1cc(Br)cnc1N,2.32%
22,O=C(NCC1CCCO1)c1nn2c(C(F)(F)F)cc(-c3ccccc3)nc2c1Cl (stereo not drawn),3.96%
23,COc1ccc(C2(CNC(=O)/C=C/c3ccco3)CCCC2)cc1OC,0.587%
24,CCOC(=O)C1=C(C)N=c2s/c(=C\c3ccc(C)o3)c(=O)n2C1c1ccccc1OC (stereo not drawn),3.06%
